{"source": "PubChem BioAssay AID651820", "about": "(National Center for Advancing Translational Sciences (NCATS), 2012)", "note": "In all, about 340,000 compounds went through this assay and about 12,000 (3.5%) were called active. Inconclusive means that the source gave no clear call. Such entries were picked first, then a sample of the others. Calls follow the shape of the dose curve; as a rule, active = well fitted inhibition curve with a large enough effect; inconclusive = small, poorly fitted or top-dose-only effect, or another doubt; inactive = no such curve, though single readings can be large or run the other way. No potency is given beside an inconclusive call; the fits are too rough. Starred links: 1 amine or outer side, 2 acyl side, 3 side chain; linkers in the order of their positions; H or OH if unused. Non-standard residues stand in square brackets, D forms with d. Residues, ends and D or L forms follow the SMILES beside them. X2 = CCC[C@@H](N[*:1])[C@H](C)C(=O)O[C@H](C(=O)[*:2])[C@@H](C)CC; X1 = CC(N[*:1])C(=O)C(C)(C)C(=O)[*:2]; NMeY = CN[C@@H](Cc1ccc(O)cc1)C(=O)O; NMeL = CN[C@@H](CC(C)C)C(=O)O; NMeV = CN[C@H](C(=O)O)C(C)C; NMeA = CN[C@@H](C)C(=O)O"}
{"assay": "qHTS Assay for Inhibitors of Hepatitis C Virus (HCV); also: potency is read from the fitted curve at half-maximal effect; tags tell the direction and shape of the fitted curve; as to activity change, negative = inhibition: % is scaled to controls: 0 for no effect and ±100 for the full control effect", "conditions": "Huh7.5.1 HCVcc-Cre (HCVcc is cell-culture hepatitis C virus) infection, luciferase reporter, 44 h; activity change, negative = inhibition: at 41.8 µM (top of the series)", "how_it_was_run": "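Cells (1,000/well) were plated 4 h before compound, then infected with HCVcc-Cre virus (~0.5 moi). After 44 h further culture, infection was read as luciferase luminescence following a 15 min substrate incubation at room temperature.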"}
{"smiles": "Cc1ccc(NC(=S)N(CCN(C)C)Cc2cc3cc(C)ccc3[nH]c2=O)cc1", "Potency": "inconclusive [inhibitor, single point]"}
{"smiles": "Cc1ccccc1NC(=S)NCCSc1ccc(Cl)cc1", "Potency": "inconclusive [inhibitor, partial curve]"}
{"smiles": "O=C(N/N=C/c1cn(-c2cccs2)nc1-c1ccccc1)c1ccccc1Cl", "Potency": "active: 11.2 µM"}
{"smiles": "O=C(Nc1ccc(Br)cc1)C1CCCN(S(=O)(=O)c2cccnc2)C1", "note": "(stereo unspecified)", "Potency": "inconclusive [inhibitor, single point]"}
{"smiles": "Cc1ccc2nc(Cc3ccc(N)cc3)[nH]c2c1", "activity change, negative = inhibition": "inactive: 4.34%"}
{"smiles": "COc1cc(Br)cc(/C=N/NC(=O)Cc2ccc(C(F)(F)F)cc2[N+](=O)[O-])c1O", "Potency": "inconclusive [inhibitor, single point]"}
{"smiles": "CCC[C@H]1NC(=O)[C@H](C)N(C)C(=O)C(C)(C)C(=O)C(C)NC(=O)[C@H](Cc2ccc(OC)cc2)N(C)C(=O)[C@H](C(C)C)N(C)C(=O)CNC(=O)[C@H](CC(C)C)N(C)C(=O)CNC(=O)[C@H]([C@@H](C)CC)OC(=O)[C@H]1C", "note": "(stereo partly specified) (cyclo(G[NMeL]G[NMeV][NMeY](Me)[X1][NMeA][X2]))", "Potency": "active: 0.562 µM"}
{"smiles": "O=C(NCCCNC(=O)c1ccco1)c1ccc(F)cc1", "activity change, negative = inhibition": "inactive: 23.6%"}
{"smiles": "COc1cc(NC(=O)c2cccs2)c(OC)cc1NC(=O)Nc1ccc(F)cc1", "Potency": "inconclusive [inhibitor, partial curve]"}
{"smiles": "COc1cc(OC)cc(C(=O)N[C@H](C(=O)NNC(=O)c2ccc(Br)cc2)C(C)C)c1", "activity change, negative = inhibition": "inconclusive: -35.1% [inhibitor]"}
{"smiles": "COc1ccc(NC(=S)N2CCc3ccccc3C2)cc1OC", "activity change, negative = inhibition": "inactive: 4.34%"}
{"smiles": "Cc1ccc(C)c(/C(O)=C2/C(=O)C(=O)N(CCN3CCOCC3)C2c2ccc(C)o2)c1", "note": "(stereo unspecified)", "activity change, negative = inhibition": "inactive: 18.4%"}
{"smiles": "Cc1ccc(Oc2ccc(Cl)cc2NC(=O)c2ccc(F)cc2F)cc1", "activity change, negative = inhibition": "inactive: -21.4%"}
{"smiles": "CCOc1ncccc1C(=O)Nc1nc(SC)ns1", "Potency": "inconclusive [inhibitor, single point]"}
{"smiles": "CC(NC(=O)C(Cc1ccccc1)=NO)c1ccccc1", "note": "(stereo unspecified)", "activity change, negative = inhibition": "inactive: 37.9%"}
{"smiles": "COc1ccc(NC(=O)c2ccco2)cc1NC(=O)c1cccs1", "Potency": "inconclusive [inhibitor, partial curve]"}
{"smiles": "CCC(C(=O)NC1CCCC1)N(C(=O)c1snc(C(N)=O)c1N)c1ccc(OC)c(OC)c1", "note": "(stereo unspecified)", "Potency": "inconclusive [inhibitor, partial curve]"}
{"smiles": "O=C(NCC(c1cccs1)N1CCOCC1)c1cc(-c2ccc(F)cc2)nc2ccccc12", "note": "(stereo unspecified)", "Potency": "active: 7.08 µM"}
{"smiles": "Cc1cc(C(=O)CSCCCn2c(=O)[nH]c3ccccc32)c(C)n1C", "Potency": "inconclusive [inhibitor, single point]"}
{"smiles": "CCCCCCCC[n+]1cccc2c3ccccc3ccc21", "Potency": "active: 1.41 µM"}
{"smiles": "O=c1oc(C2(O)CCCCC2)cc2ccc(/C=C/c3ccc(F)cc3)cc12", "Potency": "inconclusive [inhibitor, full curve]"}
{"smiles": "O=C(C1=C[C@@H](c2csc3ccccc23)C[C@@H](OCc2ccc(CO)cc2)O1)N1CCOCC1", "activity change, negative = inhibition": "inactive: -0.601%"}
{"smiles": "COc1cc(-c2nc3cnccn3c2Nc2ccc(C(C)C)cc2)ccc1O", "Potency": "inconclusive [inhibitor, single point]"}
{"smiles": "CSc1ccc(NC(=O)NCCN2CCc3ccccc3C2)cc1", "activity change, negative = inhibition": "inactive: -18.7%"}
{"smiles": "CNC(=O)N(C1=NCC(C)S1)c1ccc(F)cc1F", "note": "(stereo unspecified)", "Potency": "inconclusive [inhibitor, full curve, poor fit]"}
{"smiles": "O=C(COc1ccc(Cl)cc1Cl)N/N=C/c1ccc[nH]1", "Potency": "active: 6.31 µM"}
{"smiles": "CCOc1ccc(-c2c(=O)n(OCc3ccccc3Br)c3ccccc3[n+]2[O-])c(OCC)c1", "Potency": "inconclusive [inhibitor, single point]"}
{"smiles": "CNC(=O)c1ccc(-c2ccc(F)cc2)s1", "Potency": "inconclusive [inhibitor, single point]"}
{"smiles": "S=C(Nc1ccc(Cl)cc1)NC1CC2CCCC(C1)N2C1CCCC1", "note": "(stereo unspecified)", "Potency": "inconclusive [inhibitor, single point]"}
{"smiles": "Nc1nc(CN2CCN(c3ccccc3F)CC2)nc(N2CCCc3ccccc32)n1", "activity change, negative = inhibition": "inactive: 6.74%"}
{"smiles": "COc1ccc(O)c(CN2CC3CCC(CC3)C2)c1", "activity change, negative = inhibition": "inactive: -12.2%"}
{"smiles": "O=C(COc1ccccc1)N1CCN(CCN2C(=O)c3cccc4cccc(c34)C2=O)CC1", "Potency": "inconclusive [inhibitor, partial curve]"}
{"smiles": "CCN(CC)c1ncccc1C(=O)NCc1cccs1", "activity change, negative = inhibition": "inactive: 3.43%"}
{"smiles": "O=C(c1cc2cc(Cl)ccc2oc1=O)N1CCCC1", "activity change, negative = inhibition": "inactive: -2.49%"}
{"smiles": "Cc1ccc(Nc2c(-c3cccnc3)nc3ccc(Br)cn23)cc1", "activity change, negative = inhibition": "inactive: 0.252%"}
{"smiles": "CN(C)S(=O)(=O)c1cccc(NC(=S)N/N=C/c2ccc(O)c(O)c2O)c1", "activity change, negative = inhibition": "inactive: -22.8%"}
{"smiles": "O=C(O)/C=C/C(=O)N1CCN(C(c2ccccc2)c2ccccc2)CC1", "Potency": "inconclusive [inhibitor, partial curve]"}
{"smiles": "COCc1ccc(C(=O)N2CCCC(C(=O)c3cccc(C(F)(F)F)c3)C2)o1", "note": "(stereo unspecified)", "Potency": "inconclusive [inhibitor, single point]"}
{"smiles": "O=c1[nH]cnc(O)c1C(c1ccc([N+](=O)[O-])cc1)c1c(O)nc[nH]c1=O", "activity change, negative = inhibition": "inactive: 19.6%"}
{"smiles": "COc1cc(OC)c(N2CC(C(=O)Nc3cc(Cl)ccc3N3CCOCC3)CC2=O)cc1Cl", "note": "(stereo unspecified)", "Potency": "inconclusive [inhibitor, partial curve]"}
{"smiles": "COc1ccc(NC(=O)CSCC(=O)Nc2cccc(S(=O)(=O)N3CCCCCC3)c2)cc1", "Potency": "inconclusive [inhibitor, single point]"}
{"smiles": "COc1ccc2oc(-c3ccccc3[N+](=O)[O-])cc(=O)c2c1", "Potency": "inconclusive [inhibitor, full curve]"}
{"smiles": "CCOC(=O)c1sc(NC(=O)c2c(OC)cccc2OC)nc1C", "Potency": "inconclusive [inhibitor, partial curve]"}
{"smiles": "CCCC(=O)c1cc(F)c(N2CCN(S(=O)(=O)c3ccccc3)CC2)cc1C", "Potency": "inconclusive [inhibitor, single point]"}
{"smiles": "CN(C)CC/C=C1/c2ccc(F)cc2Sc2ccc(Cl)cc21", "Potency": "active: 8.91 µM"}
{"smiles": "Cc1ccc2cccc(N=Cc3c(C)[nH]n(-c4ccccc4)c3=O)c2n1", "Potency": "inconclusive [inhibitor, single point]"}
